According to PubChem BioAssay AID588342 (National Center for Advancing Translational Sciences (NCATS), 2011):
Among all 360,000 compounds or so, about 25,000 (6.9%) were called active. The shares of active, inactive and inconclusive entries below differ from those in the screen. The call rests on the fitted dose curve; in most records, active means well fitted inhibition curve with a large enough effect; inconclusive means small, poorly fitted or top-dose-only effect; inactive means flat fitted curve, though single readings scatter. Potencies of inconclusive entries are doubtful fits and often do not repeat.

biological target: Luciferin 4-monooxygenase (Photinus pyralis) (UniProt P08659); experiment: qHTS profiling assay for firefly luciferase inhibitor/activator using purifed enzyme and Km concentrations of substrates (counterscreen for miR-21 project); conditions: purified FLuc, luminescence inhibition; series mostly up to 57.5 µM; further: nearly all actives have a fitted effect of over 55% in size
UniProt P08659, sequence (P08659 whole entry, looked up): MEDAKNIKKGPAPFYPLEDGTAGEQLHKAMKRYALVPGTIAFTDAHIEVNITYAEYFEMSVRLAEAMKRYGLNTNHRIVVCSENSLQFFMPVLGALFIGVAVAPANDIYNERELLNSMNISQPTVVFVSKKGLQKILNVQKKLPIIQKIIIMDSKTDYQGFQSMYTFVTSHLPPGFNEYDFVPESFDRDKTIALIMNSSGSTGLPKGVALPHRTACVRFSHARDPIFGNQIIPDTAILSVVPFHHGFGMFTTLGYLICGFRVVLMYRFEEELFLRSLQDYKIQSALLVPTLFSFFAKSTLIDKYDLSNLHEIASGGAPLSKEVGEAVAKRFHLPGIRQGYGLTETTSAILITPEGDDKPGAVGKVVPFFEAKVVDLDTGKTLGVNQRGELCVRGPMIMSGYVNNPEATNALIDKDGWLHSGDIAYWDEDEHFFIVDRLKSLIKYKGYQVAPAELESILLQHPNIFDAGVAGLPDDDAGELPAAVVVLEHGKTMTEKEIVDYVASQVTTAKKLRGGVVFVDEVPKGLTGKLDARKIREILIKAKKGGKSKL
Method in brief: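 Purified P. pyralis luciferase (10nM final) with 10uM D-luciferin and 10uM ATP (Km levels) in 50mM Tris acetate pH 7.5, 10mM Mg acetate, 0.01% Tween-20, 0.05% BSA; qHTS 6-point titration, ~60 µM downward; luminescence read.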
Potency means the concentration at half of the fitted maximal effect; tags describe the fitted curve by direction and shape.

SMILES | Potency
COc1cccc(C(=O)Nc2ncc3c(n2)CC(C)CC3=O)c1 (centres undefined) | inconclusive: 30.1 µM [inhibitor, partial curve, poor fit]
COC(=O)[C@]1(C)N[C@H](c2ccc(-c3ccc(F)cc3)cc2)[C@@H]2C(=O)N(C)C(=O)[C@@H]21 | inactive
S=c1[nH]nc(-c2cccs2)n1/N=C/c1cn(-c2ccccc2)nc1-c1ccc(Cl)cc1 | inactive
COC(=O)c1c(SCc2ccc(C#N)cc2)nc(=O)[nH]c1C | inconclusive: 30.1 µM [inhibitor, partial curve, poor fit]
CC1(C)CC(=O)/C(=N/Nc2ccc(Cl)cc2)CO1 | active: 6.75 µM
COc1ccc(-c2c(C)nn3c(N4CCCCCC4)cc(C)nc23)cc1OC | inconclusive: 21.3 µM [inhibitor, partial curve, poor fit]
CCOC(=O)c1cc(C(=O)c2cc(Cl)ccc2O)coc1=N | inconclusive: 10.7 µM [inhibitor, partial curve, poor fit]
Cc1ccc(N2C(=O)C(Cl)=C(N3CCOCC3)C2=O)cc1Cl | inconclusive: 30.1 µM [inhibitor, partial curve, poor fit]
CC(C)(Cc1ccccc1)NC(=O)C(=O)c1cn(CC(=O)N2CCOCC2)c2ccccc12 | inconclusive: 26.9 µM [inhibitor, single point]
COc1ccc(OC)c(NC(=O)c2csc(Cl)c2OC)c1 | active: 15.1 µM
Cc1ccn2c(=O)nc(SCC(=O)Nc3ccc4c(c3)OCCO4)nc2c1 | inactive
CCOc1ccccc1N(CC(=O)NCc1ccco1)C(=O)CCC(=O)Nc1nccs1 | inactive
COc1cccc(C(=O)Nc2cccc(-c3ccc(N4CCOCC4)nn3)c2)c1 | active: 2.13 µM
O=C(Nc1nc2ccsc2c(=O)s1)c1ccc(Cl)cc1 | active: 0.213 µM
Cc1ccn2c(Nc3ccc4c(c3)OCCO4)c(-c3ccccc3O)nc2c1 | inconclusive: 19 µM [inhibitor, partial curve]
CC(=O)N1CCCc2cc(S(=O)(=O)N3CCC(C(=O)Nc4ccc(C)cc4Cl)CC3)ccc21 | inactive
COc1ccccc1C(=O)Nc1ccc(OCc2nnc3c4ccccc4c(C)nn23)cc1 | active: 4.26 µM
CC(=O)N/N=C(\C)c1ccc2c(c1)OCCO2 | inconclusive: 19 µM [inhibitor, partial curve, poor fit]
O=C(NCCc1csc(-c2ccc(C(F)(F)F)cc2)n1)c1cccs1 | inconclusive: 23.9 µM [inhibitor, single point]
Cc1ccc2c(Cl)c(C(=O)NCC3CCCO3)sc2c1 (centres undefined) | active: 5.36 µM
COc1cccc(-c2noc(CCC(=O)NCCc3ccccc3)n2)c1 | inconclusive: 30.1 µM [inhibitor, partial curve, poor fit]
O=C(CCC1COc2ccccc2O1)NC1CCCCC1 (centres undefined) | inconclusive: 37.9 µM [inhibitor, single point]
CCSc1nc2ccc(N3C(=O)C4C5C=CC(C5)C4C3=O)cc2s1 (centres undefined) | inconclusive: 23.9 µM [inhibitor, single point]

SMILES | Potency
COc1ccccc1Nc1nc(N)nc(CCl)n1 | inconclusive: 26.9 µM [inhibitor, partial curve, poor fit]
CCc1nnc(NC(=O)C=C(C)C)s1 | inconclusive: 16.9 µM [inhibitor, partial curve]
COc1ccc(OC)c(C2/C(=C(/O)c3cnn(-c4ccccc4)c3C)C(=O)C(=O)N2CCN(C)C)c1 (centres undefined) | inconclusive: 23.9 µM [inhibitor, single point]
S=C(NCc1ccco1)Nc1ccc(Cl)cc1 | inconclusive: 21.3 µM [inhibitor, single point]
CCN(CC)c1ccc(/C=N/NC(=O)c2cccc(S(=O)(=O)N3CCOCC3)c2)c(O)c1 | inconclusive: 37.9 µM [inhibitor, partial curve, poor fit]
O=C(Oc1ccccc1)c1ccc2nccnc2c1 | inconclusive: 21.3 µM [inhibitor, partial curve]
O=C(Nc1cccc(-c2nnc(-c3ccco3)o2)c1)c1ccccc1 | inconclusive: 37.9 µM [inhibitor, partial curve, poor fit]
O=C(OCC(=O)N1CCc2ccccc21)c1ccc[nH]c1=O | inconclusive: 16.9 µM [inhibitor, partial curve]
COc1ccc(Nc2nc3ccc(Cl)cc3nc2-n2nc(C)cc2C)cc1 | inactive
CCOc1ccc(C(=O)NCC(c2cccs2)S(=O)(=O)c2ccccc2)cc1 (centres undefined) | inactive
CCOc1ccc(C(=O)NCCSc2c(C)[nH]c3ccccc23)cc1OCC | inactive
Nc1nc(Nc2ccccc2)nc(NCc2ccco2)c1[N+](=O)[O-] | inconclusive: 23.9 µM [inhibitor, single point]
O=C(CCl)N1CCN(S(=O)(=O)Cc2ccccc2)CC1 | inactive
CCOC(=O)c1sc(-c2ccc(Cl)cc2)nc1O | inconclusive: 37.9 µM [inhibitor, partial curve, poor fit]
O=C(Nc1cccc2ccccc12)c1cnccn1 | inconclusive: 26.9 µM [inhibitor, single point]
COc1ccc(C(=O)Nc2nnc(Cc3ccc(OC)c(OC)c3)s2)cc1 | inactive
CSc1ncccc1C(=O)Nc1nc2ccc(Oc3ccccc3)cc2s1 | active: 23.9 µM
COc1ccccc1-n1nc(C(=O)O)c2ccccc2c1=O | inconclusive: 21.3 µM [inhibitor, partial curve, poor fit]
Cc1ccc(OCC(=O)Nc2cccc3nsnc23)c(C)c1 | inconclusive: 9.53 µM [inhibitor, partial curve, poor fit]
CCN1CCN(Cc2ccccc2NC(=O)Nc2ccc(C)cc2)CC1 | active: 23.9 µM
Cc1ccnc(NC(=O)c2cc3cc(F)ccc3s2)c1 | active: 2.69 µM
COc1ccccc1C(=O)Nc1ccc(N2CCN(C(C)=O)CC2)cc1 | inconclusive: 37.9 µM [inhibitor, partial curve, poor fit]
COc1ccc(-c2cc(=O)oc3cc(OCC(=O)NCC(O)c4ccccc4)ccc23)cc1 (centres undefined) | inactive

SMILES | Potency
CC(=O)c1c(C)oc2c1cc(NS(=O)(=O)c1ccc(C(C)(C)C)cc1)c1ccccc12 | inconclusive: 9.53 µM [inhibitor, partial curve, poor fit]
CCOC(=O)C1CCN(C(=O)Nc2ccc(C)c(Cl)c2)CC1 | inconclusive: 30.1 µM [inhibitor, single point]
Cc1cc(C(=O)OCC(=O)c2cccs2)ccc1[N+](=O)[O-] | inconclusive: 19 µM [inhibitor, partial curve, poor fit]
Cc1ccn2cc(CCNC(=O)CC(C)(C)C)nc2c1 | inactive
C=CCN1C2CCCC1CC(NC(=S)Nc1cccc(OC)c1)C2 (centres undefined) | inconclusive: 0.0107 µM [inhibitor, partial curve, poor fit]
O=C(c1cn(-c2ccccc2)nc1-c1ccc(Cl)s1)N1CCOCC1 | active: 16.9 µM
Cc1ccc2nc(-c3ccc(Cl)s3)c(Nc3ccc4c(c3)OCCO4)n2c1 | inconclusive: 10.7 µM [inhibitor, partial curve, poor fit]
COc1ccc(/C=N/n2nnnc2N)c(OC)c1 | inconclusive: 37.9 µM [inhibitor, partial curve, poor fit]
CC(=O)Nc1cccc(/C(C)=N/NC(=O)c2ccc(NS(=O)(=O)c3cccs3)cc2)c1 | inconclusive: 16.9 µM [inhibitor, partial curve]
COc1ccc(N=C(C)C2=C(O)CSC2=O)cc1 | inconclusive: 26.9 µM [inhibitor, partial curve]
CCOc1ccc(-c2cccc(NS(=O)(=O)c3cc([N+](=O)[O-])ccc3Cl)c2)nn1 | inconclusive: 21.3 µM [inhibitor, single point]
Cc1c(/C=N/Nc2ccc([N+](=O)[O-])cn2)c2ccccc2n1Cc1ccccc1 | inconclusive: 16.9 µM [inhibitor, partial curve]
O=C(CCCN1C(=O)/C(=C/c2ccccc2)SC1=S)Nc1ccccc1O | inactive
Cc1[nH]nc(N=CC2=C(O)CC(C)(C)CC2=O)c1-c1ccccc1 | active: 13.5 µM
Cc1ccc(-n2nc(C)c3c2OC(N)=C(C#N)C3c2ccc(C)o2)cc1 (centres undefined) | inconclusive: 0.675 µM [inhibitor, full curve, poor fit]
S=C(NCCN1CCCCC1)Nc1ccccc1 | inconclusive: 0.0085 µM [inhibitor, partial curve, poor fit]
O=C(Nc1ccc(-c2cnco2)cc1)c1ccccc1 | inconclusive: 9.53 µM [inhibitor, partial curve]
Cc1ccc(NC(=O)CN2C(=O)S/C(=C\c3cccn3-c3cccc(C(=O)O)c3)C2=O)cc1C | inconclusive: 21.3 µM [inhibitor, partial curve, poor fit]
COC(=O)C(Cc1c[nH]c2ccccc12)NC(=O)c1cncc(Br)c1 (centres undefined) | inactive
COCCCn1[nH]c2c3c(ccc2c1=O)C(=O)c1ccccc1C3=O | inconclusive: 26.9 µM [inhibitor, partial curve, poor fit]
O=C(NCC1CCCO1)C1CCCN(S(=O)(=O)c2cc(Cl)ccc2Cl)C1 (centres undefined) | inactive
Cc1cc(C)c2nc(N3CCCC(C(=O)NCc4ccccc4F)C3)sc2c1 (centres undefined) | inactive
COc1ccc(OC)c(Cc2nnc(CCC(=O)NC3CCCCC3)o2)c1 | inconclusive: 37.9 µM [inhibitor, partial curve, poor fit]
